Part of at least one peptide drawing is inferred or uncertain, most often the ends. Numbered stars: 1 amine (or outer) side, 2 acyl side, 3 side chain; on linkers, the order of the positions; unused ones are H or OH. Bridge positions count the residues as written; N and C are the ends. Square brackets hold non-standard residues; d marks the D form. Side chains are listed from the residue outwards. Peptide text beside a SMILES is read from it. * marks the point of attachment. C20 diacid = O=C(O)CCCCCCCCCCCCCCCCCCC(=O)*; γGlu = O=C(O)[C@H](CCC(=O)[*:2])N[*:1]; βAsp = O=C(O)[C@H](CC(=O)[*:2])N[*:1]; Hyp = O=C(O)[C@@H]1C[C@@H](O)CN1; AEEA = NCCOCCOCC(=O)O
Key:
human amylin receptor = molecular target: T1, human amylin receptor (Homo sapiens, UniProt O60896+P30988); assay: Luciferase assay of amylin derivatives in amylin receptor/CRE-luc CHO cell line; format: cell-based; settings: CHO-K1/Ga15/AMY3 CRE-luc cells, 24 hours incubation, F12 medium containing 10% FBS
T1 construct: host or cells: CHO-K1/Ga15/AMY3 cells, further stably transfected with a CRE-luciferase plasmid
T1 sequence (P30988 25-474): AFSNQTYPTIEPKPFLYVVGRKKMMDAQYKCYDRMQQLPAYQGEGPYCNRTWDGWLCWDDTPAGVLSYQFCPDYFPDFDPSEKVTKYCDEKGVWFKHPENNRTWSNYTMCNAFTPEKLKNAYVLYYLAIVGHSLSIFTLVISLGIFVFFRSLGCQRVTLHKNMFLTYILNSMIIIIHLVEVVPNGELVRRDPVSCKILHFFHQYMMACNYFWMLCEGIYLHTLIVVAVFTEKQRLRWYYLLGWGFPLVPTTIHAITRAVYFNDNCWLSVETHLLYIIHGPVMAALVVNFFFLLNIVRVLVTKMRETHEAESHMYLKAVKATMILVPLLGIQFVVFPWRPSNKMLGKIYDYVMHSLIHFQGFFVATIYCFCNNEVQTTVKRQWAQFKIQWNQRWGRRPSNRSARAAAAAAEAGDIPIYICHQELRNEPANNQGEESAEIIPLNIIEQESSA
T1 sequence (O60896 24-148 partner): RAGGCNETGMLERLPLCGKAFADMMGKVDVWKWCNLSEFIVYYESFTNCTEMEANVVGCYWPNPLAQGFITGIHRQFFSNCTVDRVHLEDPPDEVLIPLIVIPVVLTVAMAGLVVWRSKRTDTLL

[1] = Freeze-thaw stability of derivatives (freeze-thaw yield by liquid chromatography); format: physicochemical
Outline: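 Freeze-thaw yield is the ratio of peptide concentration after versus before one overnight −20° C freeze and room-temperature thaw, both quantified by RP-HPLC of supernatant after centrifugation. Samples were 0.2 mg/ml freeze-dried derivative in 20 mM PB, pH 7.0.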

Row | SMILES | EC50 (human amylin receptor) | Dissolution property ([1]; appearance after dissolution at 0.2 mg/ml in 20 mM phosphate buffer solution (PB) (pH 7.0)) | Freeze storage property ([1]; appearance after overnight storage at −20° C. and thawing to room temperature, 0.2 mg/ml in 20 mM PB (pH 7.0)) | Freeze storage yield ([1]; concentration of polypeptide after freezing and thawing / concentration before, by liquid chromatography, −20° C. overnight)
1 | CC[C@H](C)[C@H](NC(=O)[C@@H]1CCCN1C(=O)[C@H](CCCCNC(=O)CC[C@H](NC(=O)CCCCCCCCCCCCCCCCCCC(=O)O)C(=O)O)NC(=O)[C@H](CC(C)C)NC(=O)[C@H](CC(N)=O)NC(=O)[C@H](CC(N)=O)NC(=O)[C@H](CO)NC(=O)[C@H](CO)NC(=O)[C@H](Cc1c[nH]cn1)NC(=O)[C@H](CCCNC(=N)N)NC(=O)[C@H](CC(C)C)NC(=O)[C@H](Cc1ccccc1)NC(=O)[C@H](CCC(=O)O)NC(=O)[C@H](C)NC(=O)[C@H](CC(C)C)NC(=O)[C@H](CCCNC(=N)N)NC(=O)[C@H](CCC(N)=O)NC(=O)[C@@H](NC(=O)[C@H](C)NC(=O)[C@@H]1CSSC[C@H](NC(=O)[C@@H](N)CCCNC(=N)N)C(=O)N[C@@H](CC(N)=O)C(=O)N[C@@H]([C@@H](C)O)C(=O)N[C@@H](C)C(=O)N[C@@H]([C@@H](C)O)C(=O)N1)[C@@H](C)O)C(=O)N[C@@H](CC(C)C)C(=O)N1CCC[C@H]1C(=O)N1CCC[C@H]1C(=O)N[C@H](C(=O)N[C@@H](CC(N)=O)C(=O)N[C@H](C(=O)NCC(=O)N[C@@H](CO)C(=O)N[C@@H](CC(N)=O)C(=O)N[C@H](C(=O)N1C[C@H](O)C[C@H]1C(N)=O)[C@@H](C)O)C(C)C)[C@@H](C)O [PD040] (H-RCNTATCATQRLAEFLRHSSNNLK([γGlu-C20 diacid])PILPPTNVGSNT[Hyp]-NH2; disulfide 2-7) | 0.118 nM | Clear | Clear | 95.62%
2 | CC[C@H](C)[C@H](NC(=O)[C@@H]1CCCN1C(=O)[C@H](CCCCN)NC(=O)[C@H](CC(C)C)NC(=O)[C@H](CC(N)=O)NC(=O)[C@H](CC(N)=O)NC(=O)[C@H](CO)NC(=O)[C@H](CO)NC(=O)[C@H](Cc1c[nH]cn1)NC(=O)[C@H](CCCNC(=N)N)NC(=O)[C@H](CC(C)C)NC(=O)[C@H](Cc1ccccc1)NC(=O)[C@H](CC(=O)O)NC(=O)[C@H](C)NC(=O)[C@H](CC(C)C)NC(=O)[C@H](CCCNC(=N)N)NC(=O)[C@H](CCC(N)=O)NC(=O)[C@@H](NC(=O)[C@H](C)NC(=O)[C@@H]1CSSC[C@H](NC(=O)[C@H](CCCCN)NC(=O)COCCOCCNC(=O)COCCOCCNC(=O)C[C@H](NC(=O)CCCCCCCCCCCCCCCCCCC(=O)O)C(=O)O)C(=O)N[C@@H](CC(N)=O)C(=O)N[C@@H]([C@@H](C)O)C(=O)N[C@@H](C)C(=O)N[C@@H]([C@@H](C)O)C(=O)N1)[C@@H](C)O)C(=O)N[C@@H](CC(C)C)C(=O)N1CCC[C@H]1C(=O)N1CCC[C@H]1C(=O)N[C@H](C(=O)N[C@@H](CC(N)=O)C(=O)N[C@H](C(=O)NCC(=O)N[C@@H](CO)C(=O)N[C@@H](CC(N)=O)C(=O)N[C@H](C(=O)N1CCC[C@H]1C(N)=O)[C@@H](C)O)C(C)C)[C@@H](C)O [PD196] ({C20 diacid-βAsp-AEEA-AEEA}-KCNTATCATQRLADFLRHSSNNLKPILPPTNVGSNTP-NH2; disulfide 2-7) | 0.064 nM | – | – | –
